# Reference: PubChem BioAssay AID1963576 (National Center for Advancing Translational Sciences (NCATS), 2024)
# The whole screen tested about 46,000 compounds, of which about 60 (0.1%) were called active. Inconclusive results, whose numbers are uncertain, are shown with a selection of clear calls. Calls come from the whole dose curve; as a rule, active = well fitted inhibition curve with a large enough effect; inconclusive = small, poorly fitted or top-dose-only effect; inactive = no such curve, though single readings can be large or run the other way. Potencies of inconclusive entries are left out as doubtful fits.
# Assay: Primary qHTS assay for Inhibitors of ovarian cancer metastasis using an organotypic tumor microenvironment (TME) model.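 For Potency: count of GFP cancer cells still attached after washing and fixation.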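 For activity change, negative = inhibition: plate controls were DMSO wells for no effect and tomatine positive control wells for full effect.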 Note: nearly all actives have a fitted effect of over 65% in size.
# Details: SKOV3ip1-GFP adhesion/invasion on 3D omental model, fluorescence; activity change, negative = inhibition: at 45.8 µM (top of the series); series mostly up to 45.8 µM
# How it was run: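 A 3D layer of primary human omental fibroblasts, mesothelial cells, fibronectin and collagen I, grown 48 hr, received SKOV3ip1-GFP cells in serum-free medium plus compounds at 0.36-46 umol/L. After 2 hr RT and 16 hr 37 C, fixed adherent GFP cells were counted; normalized to DMSO and tomatine.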
# Potency is the fitted concentration of half-maximal effect; tags give direction and shape of the fitted curve.
Compound,Potency,"activity change, negative = inhibition"
Cc1ccc(CNC(=O)Cn2c(-c3cccs3)cc3cc(Cl)ccc32)cc1,"inconclusive [inhibitor, partial curve, poor fit]",
CCc1ccc(C(=O)c2cn(CC(=O)NCc3ccc(C)cc3)c3nc(C)ccc3c2=O)cc1,"inconclusive [inhibitor, single point]",
CC1CCc2c(sc(NC(=O)CCCOc3ccccc3)c2C(N)=O)C1 (stereo not given),inactive,
Cc1cc(-c2ccc(C)c(S(=O)(=O)N3CCOc4ccc(Cl)cc43)c2)on1,inactive,
COc1ccc(-c2cn3c(C)c(C(=O)Nc4cc(C)cc(C)c4)sc3n2)cc1,active: 8.91 µM,
CCOc1ccc(-n2nc3ccc(NC(=O)Cc4ccccc4)cc3n2)cc1,"inconclusive [inhibitor, partial curve, poor fit]",
Cc1ccccc1OCCn1c(=N)n(C(C)C)c2ccccc21,"inconclusive [inhibitor, single point]",
O=C(Nc1ccc2oc(-c3cc(Br)ccc3Cl)nc2c1)c1cc2ccccc2o1,"inconclusive [inhibitor, full curve]",
CC(C(=O)NCc1ccccc1)n1ccc2cc(S(=O)(=O)N3CCCC3)ccc21 (stereo not given),"inconclusive [inhibitor, single point]",
C=CC(=O)Nc1cccc(Sc2nc(Nc3ccc(N4CCN(C)CC4)cc3)ncc2Cl)c1,"inconclusive [inhibitor, single point]",
CCCc1nn2c(=O)cc(COC(=O)c3ccc(NC(=O)c4cccs4)cc3)nc2s1,"inconclusive [inhibitor, single point]",
COc1ccc(CCNc2nc3c(c(=O)n(C)c(=O)n3C)n2Cc2ccc(F)cc2)cc1OC,"inconclusive [inhibitor, single point]",
O=C1C2=C(Nc3ccccc3SC2c2c(F)cccc2Cl)c2ccccc21 (stereo not given),"inconclusive [inhibitor, full curve, poor fit]",
CCCCNC(=O)CSc1c2c(nc3ccc(Cl)cc13)CCCC2,inactive,
c1ccc(N2CCN(c3ncnc4c3nc3n4CCCC3)CC2)cc1,inactive,
Cc1ccc(C)c(NC(=O)C(Cc2ccccc2)N2Cc3ccccc3C2=O)c1 (stereo not given),"inconclusive [inhibitor, partial curve]",
CSc1cccc(Nc2cc(C(=O)NCCCN(Cc3ccccc3)C(C)C)c3ccccc3n2)c1,"inconclusive [inhibitor, partial curve, poor fit]",
CCCCc1oc2ccc(NS(C)(=O)=O)cc2c1C(=O)c1ccc(OCCCN(CCCC)CCCC)cc1,"inconclusive [inhibitor, partial curve]",
Cc1ccc(CNCc2c(C(=O)O)c(C)n(Cc3ccc(C)cc3)c2C)cc1,inactive,
COc1cccc(C(=O)Nc2nc(-c3nnn(-c4cc(C)ccc4C)c3C)ns2)c1,inactive,
O=C1CC(c2ccccc2)Cc2[nH]c(=O)c(-c3nc(-c4ccc(Cl)c(Cl)c4)cs3)cc21 (stereo not given),inactive,
COc1ccc(C(CC(=O)Nc2ccccn2)N2Cc3ccccc3C2=O)cc1OC (stereo not given),"inconclusive [inhibitor, partial curve, poor fit]",

Compound,Potency,"activity change, negative = inhibition"
COc1cc2ccccc2cc1C(=O)N1CCN(c2nc3c(F)cccc3s2)CC1,inactive,
CC(=O)Nc1ccc(NC(=O)c2csnn2)cc1,"inconclusive [inhibitor, single point]",
COc1ccc(-c2nc(CN3CCC(C(=O)NCCCN4CCN(c5ccccc5F)CC4)CC3)c(C)o2)cc1OC,active: 7.08 µM,
C=CC(=O)Nc1cccc(Oc2nc(Nc3ccc(N4CCN(C)CC4)cc3)ncc2Cl)c1,"inconclusive [inhibitor, single point]",
O=C(Nc1cc(Cl)cc(Cl)c1)c1ccc(F)c(S(=O)(=O)NC2CCCC2)c1,"inconclusive [inhibitor, single point]",
COc1ccc(-c2cn3c(n2)sc2cc(C(=O)NCc4ccccc4OC)ccc23)cc1,"inconclusive [inhibitor, single point]",
CCCCN(CC)CCNC(=O)c1cc2c(-c3ccc(Cl)cc3)nn(C)c2s1,"inconclusive [inhibitor, single point]",
CCCCNS(=O)(=O)c1ccc2nc(NC(=O)c3cccnc3)sc2c1,"inconclusive [inhibitor, single point]",
CCOc1ccccc1C(=O)Nc1c(NC)c2ccccc2oc1=O,,inconclusive: -32.8% [inhibitor]
CCC(C)NC(=O)c1ccc(-n2c(-c3ccccc3)cc3c2CCCC3)cc1 (stereo not given),inactive,
O=C(NCC(c1cccnc1)N1CCN(Cc2ccccc2)CC1)C(=O)Nc1ccc(Cl)cc1 (stereo not given),"inconclusive [inhibitor, single point]",
Cc1cc(C)c2oc(-c3ccc(NC(=O)COc4ccccc4C)cc3)nc2c1,"inconclusive [inhibitor, single point]",
CC(=O)c1cccc(NC(=O)CCn2nc(C)c(S(=O)(=O)N(C)C)c2C)c1,inactive,
Cc1ccc(C2C=C(c3ccccc3)Nc3nc(NS(=O)(=O)c4ccc(C)cc4)nn32)cc1 (stereo not given),"inconclusive [inhibitor, single point]",
CC(C)CCNC(=O)c1cc(-c2ccc(Br)s2)nc2ccccc12,"inconclusive [inhibitor, single point]",
CSc1ccc(/C=C/c2nc3ccccc3n2S(=O)(=O)c2ccc(Br)cc2)cc1,inactive,
Cc1cccn2c(=O)c3cc(C#N)c(=O)n(-c4nnc(SCc5ccc(F)cc5)s4)c3nc12,inactive,
Cc1ccc(NC(=O)c2nc(S(=O)(=O)Cc3ccc(F)cc3)ncc2Cl)cc1C,active: 11.2 µM,
Cc1nc2c(c(C)nn2-c2ccccc2)c(C)c1CCC(=O)Nc1ccccc1,"inconclusive [inhibitor, single point]",
COc1ccc(Cl)cc1NC(=O)Cn1c(=O)n(-c2ccc(C)cc2)c(=O)c2ccc(C(=O)NCc3ccccc3Cl)cc21,inactive,
O=C(CN1C(=O)CSc2ccc(S(=O)(=O)N3CCCC3)cc21)NCc1ccccc1Cl,"inconclusive [inhibitor, single point]",
COc1ccc(N2CCN(C(=O)C(C)n3nc(C)c4sc5ccccc5c4c3=O)CC2)cc1 (stereo not given),"inconclusive [inhibitor, partial curve, poor fit]",

Compound,Potency,"activity change, negative = inhibition"
Cc1ccccc1Nc1nc(N)c(C(=O)c2ccccc2Cl)s1,inactive,
COc1ccc(Nc2oc(/C=C/c3ccccc3OC)nc2C#N)cc1,"inconclusive [inhibitor, full curve, poor fit]",
COC(=O)c1c(NC(=O)C2c3ccccc3Oc3ccccc32)sc2c1CCC(C(C)(C)C)C2 (stereo not given),"inconclusive [inhibitor, single point]",
CCCCOc1ccccc1C1CC(=O)Nc2cc(C)c(C)cc21 (stereo not given),"inconclusive [inhibitor, partial curve, poor fit]",
COc1ccc(OC)c(C(=O)CC2(O)C(=O)N(Cc3ccccc3C)c3ccccc32)c1 (stereo not given),inactive,
O=C(COc1ccccc1Cl)Nc1ccc(-c2nc3ccccc3s2)cc1,"inconclusive [inhibitor, single point]",
Cc1cccc(CS(=O)(=O)c2ncc(Cl)c(C(=O)Nc3nnc(C(C)C)s3)n2)c1,"inconclusive [inhibitor, single point]",
Cc1csc(-c2nnc(Nc3ccc(Oc4ncccc4-c4ccnc(N)n4)cc3)c3ccccc23)c1,inactive,
CCN(CC)CCNC(=O)CN1N=C(c2ccc(OC)cc2)CCC1=O,"inconclusive [inhibitor, full curve, poor fit]",
CCOc1ccc(NC(=O)CN2CCN(S(=O)(=O)c3ccc(OC)cc3)CC2)cc1,inactive,
CCOc1cc(OCC)cc(C(=O)Nc2cccc(-c3nc4ccccc4[nH]3)c2)c1,"inconclusive [inhibitor, partial curve]",
COc1ccccc1-c1nnc(C2CCN(C(=O)c3cccc(C)c3)CC2)o1,"inconclusive [inhibitor, single point]",
CCCCN(C)CCCNC(=O)CN1N=C(c2ccc(OC)cc2)CCC1=O,"inconclusive [inhibitor, single point]",
CC(=O)C1=C(c2ccccc2)N(C(C)=O)n2c(nnc2C2CCCCC2)S1,"inconclusive [inhibitor, single point]",
CCCCN(C)CCCNC(=O)C1CCN(S(=O)(=O)CC)CC1,"inconclusive [inhibitor, single point]",
COc1ccc(-c2c(C)c3ccc(O)c(CN4CCCC(C)C4)c3oc2=O)cc1OC (stereo not given),inactive,
CCOCc1cc(CN2CCN(c3ccccc3OC)CC2)c(O)c2ncccc12,inactive,
COc1cc(Nc2nc(SCc3ccccc3Cl)nc3ccccc23)cc(OC)c1,inactive,
CCOC(=O)N1CCN(Cc2nc3cc(NC(=O)c4cccc(C)c4)ccc3n2C(C)C)CC1,"inconclusive [inhibitor, full curve, poor fit]",
CC1CCCN(CCCNC(=O)c2ccc3c(c2)N(Cc2ccc(Cl)cc2)C(=O)c2ccccc2S3(=O)=O)C1 (stereo not given),"inconclusive [inhibitor, single point]",
COc1ccc(-c2nc(N3CCOCC3)c3sc(CN(C)c4ncc(C(=O)NO)cn4)cc3n2)cn1,"inconclusive [inhibitor, single point]",
